Source: PMC4811778 (eLife, 2016)

What was measured:
Experiment in all cases: cross-linking; purified native E. coli 70S ribosome (30 µg) treated with Leiker (bAL2) at 8:1, 4:1 or 2:1 protein-to-cross-linker mass ratios; trypsin digest, streptavidin enrichment, LC-MS/MS, pLink; the partners are subunits of the co-purified complex
Conditions in all cases: both partners purified
ribosomal protein S13 = ribosomal protein S13 (E. coli, UniProt P0A7S9)
ribosomal protein L5 = ribosomal protein L5 (E. coli, UniProt P62399)
ribosomal protein L9 = ribosomal protein L9 (E. coli, UniProt P0A7R1)
ribosomal protein L33 = ribosomal protein L33 (E. coli, UniProt P0A7N9)
ribosomal protein S2 = ribosomal protein S2 (E. coli, UniProt P0A7V0)
ribosomal protein S1 = ribosomal protein S1 (E. coli, UniProt P0AG67)

Measured: binding result

B1: ribosomal protein L1 (natural protein)
chain: not shown
notes: 50S ribosomal protein L1, E. coli; subunit of the native 70S ribosome; source: endogenous, in 70S ribosomes purified from E. coli DH5α (sucrose cushion, 10-50% sucrose gradient)
binds: ribosomal protein S13 | ribosomal protein L5 | ribosomal protein L9 | ribosomal protein L33 | ribosomal protein S2 | ribosomal protein S1
